Measurements taken from PubChem BioAssay AID1745853 (National Center for Advancing Translational Sciences (NCATS), 2022).
This is one part of the list. These are further read-outs of the screen, such as a control signal, another cell line or another target. No call is given for them.

How the values were obtained:
Assay in all cases: Primary Screen for Target Class Profiling of Small Molecule Inhibitors of Methyltransferases
[1] = biological target: Glycine N-methyltransferase (Homo sapiens) (UniProt Q14749); settings: purified enzyme, MTase-Glo SAH luminescence; measured here: GNMT inhibition; at 40 µM; stronger effect = lower value
In short: (§1)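 Each enzyme was assayed with SAM and its substrate. SAH formation detected by MTase-Glo luminescence; single-point 40 uM screen[…].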

[2] = biological target: Guanidinoacetate N-methyltransferase (Homo sapiens) (UniProt Q14353); settings: purified enzyme, MTase-Glo SAH luminescence; measured here: GAMT inhibition; at 40 µM; stronger effect = lower value
In short: as §1

[3] = biological target: Histamine N-methyltransferase (Homo sapiens) (UniProt P50135); settings: purified enzyme, MTase-Glo SAH luminescence; measured here: HNMT inhibition; at 40 µM; stronger effect = lower value
In short: as §1

[4] = biological target: Nicotinamide N-methyltransferase (Homo sapiens) (UniProt P40261); settings: purified enzyme, MTase-Glo SAH luminescence; measured here: NNMT inhibition; at 40 µM; stronger effect = lower value
In short: as §1

[5] = biological target: Phenylethanolamine N-methyltransferase (Homo sapiens) (UniProt P11086); settings: purified enzyme, MTase-Glo SAH luminescence; measured here: PNMT inhibition; at 40 µM; stronger effect = lower value
In short: as §1
% is set by controls: 0 for no effect and ±100 for the full control effect.

SMILES | activity change, negative = inhibition [1] | activity change, negative = inhibition [2] | activity change, negative = inhibition [3] | activity change, negative = inhibition [4] | activity change, negative = inhibition [5]
COCc1nc2nc(-c3ccccc3)c(-c3ccc(O)c(F)c3)cc2n1C | -66.7% | -51.2% | -72.4% | -70.5% | -31.4%
CCOc1cc(CC(=O)N[C@@H](CC(C)C)c2ccccc2N2CCCCC2)ccc1C(=O)O | – | -10.1% | – | -31.3% | -3.66%
CCc1ccccc1N1C(=O)c2c(C(=O)OC)ncn2CC1(C)C(=O)NC1CCCC1 (stereo unspecified) | -1.15% | -3.65% | -8.07% | -0.804% | -4.34%
O=C(c1ccc2c(c1)[nH]c(=O)n2C1CCC(O)CC1)N1CCOCC(O)C1 (stereo unspecified) | -3.5% | -9.3% | -3.4% | -13.4% | 9.99%
CNC(=O)c1noc(CNC(=O)C(c2cccc(F)c2)N(C)C)n1 (stereo unspecified) | -4.15% | 0.953% | 0.502% | -1.34% | -0.625%
CC(=O)N1CCCCN(C(=O)c2cc(-c3ccccc3C(F)(F)F)nc3c2cnn3C)C1 | -2.44% | -4.86% | -1.36% | -8.33% | -1.47%
OC1(CN2CCCCC2)CCN(Cc2cnn(-c3ccccc3Cl)c2)C1 (stereo unspecified) | -4.76% | -6.25% | -19.5% | -2.74% | 0%
Cc1ccc(C(C(=O)O)N2CCC(C(=O)N3CCCC3)CC2)c(C)c1 (stereo unspecified) | -4.92% | -5.6% | -1.6% | -9.06% | -7.68%
Cc1ccc(C(=O)N2CCN(c3ccc([N+](=O)[O-])cc3)CC2)cc1Cl | -2.52% | -0.689% | -1.57% | -18.1% | -5.27%
COc1ncccc1CNC[C@H]1O[C@@H]2C[C@@H](CC(=O)N3CCOCC3)O[C@@H]2[C@@H]1O | -2.16% | -3.84% | 0.58% | -1.75% | -1.32%
CCC(C)NC(=O)c1ccc2c(=O)n(C)c3nnc(SCc4cccc(Cl)c4)n3c2c1 (stereo unspecified) | 10% | 1.47% | 9.36% | 11.5% | 8.67%
CC1c2cccn2CCN1C(=O)Nc1ccc(Br)cc1F (stereo unspecified) | -0.623% | 0% | 6.81% | -9.95% | 5.1%
Cc1ccc(N2C(=O)CSc3c(c4ccccc4n3C)C2C(=O)NCCCOC(C)C)cc1Cl (stereo unspecified) | -4.4% | 5.1% | 1.65% | -2.98% | 0.232%
CC(C)OCCCn1c(=O)c2ccccc2n2c(CCC(=O)NCCC3=CCCCC3)nnc12 | -9.79% | -0.232% | -10.4% | -0.78% | -13.7%
CCC(C)NC(=O)c1ccc2c(=O)n(C(C)C)c3nn(CC(=O)c4ccc(Cl)cc4)c(=O)n3c2c1 (stereo unspecified) | 6% | 0.199% | 4.46% | 7.86% | 6.35%
Cn1ccnc1CNC[C@H]1Cn2cc(-c3ccccc3)nc2CO1 | -2.51% | 0.04% | -2.24% | 0.867% | -0.887%
CCC(C(=O)NCc1ccc(C)cc1)n1ccc2cc(S(=O)(=O)N3CCCCC3)ccc21 (stereo unspecified) | 2.29% | 0% | 6.01% | 2.25% | 3.84%
CC(C)S(=O)(=O)N(C)Cc1cccc(N2CCN(C(=O)c3c(Cl)cccc3Cl)CC2)c1F | -6.39% | -4.47% | -1.06% | -15.7% | 1.41%
CCc1ccc(Cc2ccc3c(c2)[C@]2(OC3)O[C@H](CO)[C@@H](O)[C@H](O)[C@H]2O)cc1 | 6.58% | 2.71% | 14.1% | -2.64% | 8.12%
CC1(CCOC2OC(CO)C(O)C(O)C2O)CCC23OC2(C1)C(O)CC1C(C)(C(=O)O)CCCC13C (stereo unspecified) | 4.94% | 1.01% | 5.42% | -10.4% | 3.95%

SMILES | activity change, negative = inhibition [1] | activity change, negative = inhibition [2] | activity change, negative = inhibition [3] | activity change, negative = inhibition [4] | activity change, negative = inhibition [5]
COc1cc(/C=C/C(=O)O[C@H]2[C@H](OC(=O)/C=C/c3cc(OC)c(O)c(OC)c3)O[C@H](CO[C@@H]3O[C@H](CO)[C@@H](O)[C@H](O)[C@H]3O)[C@@H](O)[C@@H]2O)ccc1O | -4.31% | -4.69% | 2.45% | -16.1% | -11.1%
Cn1c(=O)n(-c2ccc(C(C)(C)C#N)cc2)c2c3cc(-c4cnc5ccccc5c4)ccc3ncc21 | -7.01% | -17.7% | 5.07% | -21.7% | -7.34%
COC(=O)COc1cc2oc(=O)cc(-c3ccccc3)c2cc1Cl | 0.619% | 5.03% | 4.72% | -0.734% | 0.696%
O=S(=O)(c1ccccc1)N1CCCC(CN2CCCC2)CC1 (stereo unspecified) | -8.62% | -6.86% | -30.7% | -11.6% | -11.9%
CC1(C(=O)NC2CCCCCC2)Cn2nc(-c3ccco3)cc2C(=O)N1Cc1cccc(F)c1 (stereo unspecified) | -7.16% | -2.33% | 0.486% | -15.4% | -1.58%
COc1ccc2c(c1)c(CN1CCOCCNC(=O)CC1)cn2C | -3.6% | -3.04% | 0.473% | -10.3% | 52.3%
NC(=O)NCC(=O)N1CCC2(CCCN(CCCc3ccccc3)C2)C1 (stereo unspecified) | -5.02% | -4.69% | -2.26% | -11.5% | 5.92%
COc1cccc(CN2C(=O)c3ccc(-c4ccco4)n3CC2(C)C(=O)NC2CCCCC2)c1 (stereo unspecified) | -4.92% | 2.38% | -1.11% | -5.8% | -6.31%
CC(=O)O[C@@]1(C)[C@@H]2CC(=C(C)C)C(=O)C[C@@]2(C)CC[C@H]1OC(=O)C1(C)OC1C (stereo partly specified) | -0.979% | -2.71% | 9.46% | -17.5% | -11.4%
COc1cc(/C=C/C(=O)O[C@@H]2C[C@](O)(C(=O)O)C[C@@H](O)[C@H]2O)ccc1O | -0.421% | 1.67% | 4.25% | -7.34% | -3.56%
CC(=O)N1CCN(c2ccnc(-c3nnc(C)n3C3CCCCC3)c2)CC1 | -1.34% | -3.05% | -0.52% | -11.1% | -10.5%
CCOc1ccccc1CN1C(=O)c2c(C(=O)OC)ncn2CC1(C)C(=O)NC1CCCCCC1 (stereo unspecified) | 4.41% | 0% | 3.51% | 3.44% | 2.86%
CCOCCCNC(=O)C1c2c(n(C)c3ccccc23)SCC(=O)N1c1ccc(Cl)cc1C (stereo unspecified) | 14.2% | 2.72% | 8.31% | 7.47% | 9.93%
CCOC(=O)c1cc2n(n1)CC(C)(C(=O)NC1CCCC1)N(Cc1cccc(C)c1)C2=O (stereo unspecified) | 5.34% | 0.093% | 3.75% | 7.29% | 3.4%
O=C(NC1CC(c2nnc(CO)n2C2CC2)C1)c1cccn2cnnc12 (stereo unspecified) | -5.43% | -13.5% | -3.83% | -11.9% | -6.63%
COc1ccc(-c2c(C)nn3c4c(cnc23)C(=O)CC(c2ccc(C)cc2)C4)cc1 (stereo unspecified) | – | 9.99% | – | 1.87% | 8.74%
Cc1ccc(CN2CCCCCNC(=O)[C@@H]3CCC[C@@H]32)s1 | -4.35% | -1.44% | 0.552% | -16.4% | -4.25%
COc1ccc(CN2C(=O)c3cc4occc4n3CC2(C)C(=O)NC2CCCCC2)cc1 (stereo unspecified) | -5.34% | 4.01% | 0.922% | 2.61% | -1.42%
N#Cc1ccc(C(=O)N2CCN3CCS(=O)(=O)N(C4CC4)C(=O)C3C2)cc1 (stereo unspecified) | -5.97% | -8.92% | -2.91% | -15.3% | 7.43%
COc1cccc(C2c3cccn3-c3sc4c(c3CN2C(=O)NCc2ccc(F)cc2)CCCC4)c1 (stereo unspecified) | -1.36% | 1.47% | 7.51% | 2.08% | 5.98%

SMILES | activity change, negative = inhibition [1] | activity change, negative = inhibition [2] | activity change, negative = inhibition [3] | activity change, negative = inhibition [4] | activity change, negative = inhibition [5]
COC(=O)NC1CCN(c2ccc3nnc(-c4ccccc4)n3n2)C1 (stereo unspecified) | -6.19% | -1.78% | -1.28% | -8.21% | -0.734%
CC(C)(Oc1nn(CC2CCOCC2)c2ccccc12)C(=O)NCc1ccncc1 | -4.74% | -2.61% | -1.19% | -8.32% | 4.16%
C=C1CC[C@@H](O)[C@]2(C)C[C@H]3OC(=O)C(=C)[C@H]3CC12 (stereo partly specified) | -1.27% | -1.9% | 5.8% | -14.5% | 3.51%
CCCC1c2cccn2CCN1C(=O)NCc1ccc(C)cc1 (stereo unspecified) | 3.96% | 3.09% | 0.481% | 2.65% | 5.09%
c1cncc(-c2cc(-c3cccc(N4CCOCC4)c3)cn3cncc23)c1 | -26.6% | -9.34% | -17.2% | -19.4% | -28.1%
CSc1ccc(CNC(=O)CCn2ccc3cc(S(=O)(=O)N4CCCC4)ccc32)cc1 | 2.23% | 0.678% | 4.57% | -1.29% | 1.93%
CC1CCCCC1NC(=O)C1(C)Cn2c(ccc2-c2ccco2)C(=O)N1Cc1ccccn1 (stereo unspecified) | 0.141% | 0.326% | 10.6% | 0.609% | 1.4%
COc1ccc(Cn2c(=O)c3ccccc3n3c(-c4ccc(Cl)cc4)nnc23)cc1 | -1.23% | 0.62% | 2.15% | -1.69% | 0.101%
CC(C)(C)c1ccc(-c2cc(C[C@H]3CNCC[C@H]3CC(=O)N3CCOCC3)no2)cc1 | -6.98% | -3.37% | -8.63% | -32.2% | -5.04%
C[C@@]1(O)[C@H](O)[C@@H](CO)O[C@H]1n1cnc2c(=O)[nH]c(N)nc21 | 3.1% | -7.52% | 7.92% | -11.7% | 2.19%
CN1C(=O)c2cc(C(=O)NCCN3CCCC3)nn2CC1(C)C(=O)NCc1ccc(F)cc1 (stereo unspecified) | 0.045% | 0% | -1.12% | -2.81% | -3.23%
Cc1ccc(S(=O)(=O)c2nnn3c2nc(NCc2ccccc2)c2ccccc23)c(C)c1 | -4.82% | -4.41% | -12.6% | -6.01% | -17.2%
CC1=C(C(=O)Nc2cc3cn[nH]c3cc2F)C(c2ccc(C(F)(F)F)cc2)CC(=O)N1 (stereo unspecified) | 5.73% | 6.95% | 10.6% | -8.34% | 3.58%
O=C(c1cccc(OC2CN(C3CCCCCC3)C2)c1)N1CCCC1 | -3.36% | -6.05% | -22.2% | -15% | -19.3%
COc1ccc(-c2oc3ccc(C)cc3c(=O)c2O)cc1OC | -65.2% | 0% | 6.5% | 10.4% | 1.47%
Cc1ccc(CNC(=O)Cn2c(=O)c3ccc(Cl)cc3n3nncc23)cc1 | -4.1% | 6.1% | 0.96% | -0.452% | -5.14%
O=C(Nc1cccc(C(F)(F)F)c1)Nc1ccc(Br)cc1-c1nn[nH]n1 | -41.2% | -5.97% | -9.95% | -20.1% | -15%
CC(C)NC(=O)N1CCNC[C@@H]1C(=O)N[C@@H](CC1CCCCC1)C(N)=O | -1.87% | -2.85% | -0.465% | 0.187% | -1.94%
C=CCC1(C(=O)O)CCCN(C(=O)c2cnn3c2CCCC3)C1 (stereo unspecified) | -6.87% | -7.9% | -3.79% | -17.5% | -7.76%
CCCc1nn(-c2cccc(C)c2)c(=O)n1CC(=O)NCc1ccc(C)o1 | -11.1% | -7.16% | -3.43% | -16.1% | -7.97%
